Laboratory results taken from PMC4336329 (PLoS ONE, 2015).
Hit rate of the full screen: of about 310,000 compounds, about 2,200 (0.71%) showed an effect of 50% or more. Effects have a minus sign here. This is one part of the list. Where a SMILES comes first, the peptide text is derived from it. The star is where a group is joined. OBn = c1ccc(CO*)cc1

What follows are compounds tested against human ether-à-go-go-related gene (hERG) potassium channel (human, UniProt Q12809) (assay: primary screen, population patch clamp on CHO cells stably expressing hERG).
human ether-à-go-go-related gene (hERG) potassium channel, sequence (Q12809 whole entry, looked up): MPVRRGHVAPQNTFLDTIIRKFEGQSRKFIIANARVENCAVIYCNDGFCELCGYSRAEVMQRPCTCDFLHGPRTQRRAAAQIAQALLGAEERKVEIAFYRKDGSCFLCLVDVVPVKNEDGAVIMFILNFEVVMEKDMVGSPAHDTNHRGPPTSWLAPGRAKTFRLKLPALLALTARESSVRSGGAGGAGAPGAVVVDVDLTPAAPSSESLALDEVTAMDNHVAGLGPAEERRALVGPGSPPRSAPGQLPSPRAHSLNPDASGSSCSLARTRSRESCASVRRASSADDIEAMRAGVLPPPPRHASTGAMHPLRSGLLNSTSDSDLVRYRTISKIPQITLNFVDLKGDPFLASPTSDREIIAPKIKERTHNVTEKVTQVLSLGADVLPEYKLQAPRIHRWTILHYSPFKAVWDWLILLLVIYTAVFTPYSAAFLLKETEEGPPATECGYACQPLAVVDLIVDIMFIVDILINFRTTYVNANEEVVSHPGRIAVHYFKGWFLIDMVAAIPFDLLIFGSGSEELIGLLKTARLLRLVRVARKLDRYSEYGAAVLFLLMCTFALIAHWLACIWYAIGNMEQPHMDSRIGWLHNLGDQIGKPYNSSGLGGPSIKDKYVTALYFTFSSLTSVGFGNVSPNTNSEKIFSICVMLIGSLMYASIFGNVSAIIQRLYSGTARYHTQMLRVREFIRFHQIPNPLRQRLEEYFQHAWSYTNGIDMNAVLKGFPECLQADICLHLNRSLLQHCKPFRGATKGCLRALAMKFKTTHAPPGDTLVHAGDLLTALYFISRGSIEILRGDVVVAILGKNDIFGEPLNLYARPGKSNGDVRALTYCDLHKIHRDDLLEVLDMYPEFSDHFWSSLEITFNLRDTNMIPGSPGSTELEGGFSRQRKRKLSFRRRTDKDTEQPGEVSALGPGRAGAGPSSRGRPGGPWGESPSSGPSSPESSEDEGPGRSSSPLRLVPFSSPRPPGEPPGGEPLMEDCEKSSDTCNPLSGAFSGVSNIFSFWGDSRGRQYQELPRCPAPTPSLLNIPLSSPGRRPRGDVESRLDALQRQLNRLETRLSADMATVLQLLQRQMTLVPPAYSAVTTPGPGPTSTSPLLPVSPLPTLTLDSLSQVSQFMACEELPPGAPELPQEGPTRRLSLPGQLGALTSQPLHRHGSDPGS

In order of rising “hERG current change (%, negative = inhibition) at 1uM” value:
1. COc1ccc(Cc2noc(CN3CCCN(Cc4ccc(F)cc4)CC3)n2)cc1OC  -15.2%
2. CCCCn1c(N)c(N(CCOC)C(=O)COC(=O)Cc2cccc(OC)c2)c(=O)[nH]c1=O  -5.81%
3. CNCc1cc(Br)c(OCC(=O)Nc2ccccc2OC)c(OC)c1.Cl  -4.94%
4. O=C(CN1C(=O)/C(=C\c2ccc(F)cc2)Oc2ccccc21)N1CCN(c2ccccn2)CC1  -4.25%
5. Cc1ccc2c(COC(=O)c3c(C)noc3C)cc(=O)oc2c1  -3.33%
6. CCn1c(C)c(C(C)=O)c(N2CCN(c3ccccn3)CC2)nc1=S  -0.742%
7. Cc1ccc(S(=O)(=O)CCC(=O)Nc2nnc(CC(C)C)s2)cc1  -0.707%
8. CCOC(=O)c1c(NC(=O)CSc2nnnn2C)sc(C)c1-c1ccc(C)cc1  -0.63%
9. CC1Cc2ccccc2N1C(=O)COC(=O)C1(c2ccccc2F)CCCC1 (stereo not shown)  -0.43%
10. O=C(OCc1cc(=O)n2ccsc2n1)C1(c2ccc(Cl)cc2)CC1  -0.103%
11. Cc1[nH]n(-c2ccccc2)c(=O)c1S(=O)(=O)c1ccccc1  -0.0408%
12. CCc1nc2ccccc2n1CC(=O)OCC(=O)N(CC(C)C)c1c(N)n(Cc2ccccc2)c(=O)[nH]c1=O  0.13%
13. OCC1CCCN(Cc2ccc(-c3ccccc3)cc2)C1 (stereo not shown)  1.59%
14. CCOC(=O)C1CCN(C(=O)c2ccc(SC)cc2OC)CC1  1.63%
15. O=C(NCc1ccccn1)c1ccccc1Cl  2.33%
16. O=C(OCc1ccccc1)/C(=C(\O)c1ccccc1Br)c1ccc(-c2ccccc2)cn1  2.98%
17. CN(C(=O)CCN1C(=O)C2C3C=CC(C3)C2C1=O)c1ccccc1 (stereo not shown)  4.4%
18. O=C(Cn1nnc(-c2ccc(S(=O)(=O)N3CCCC3)cc2)n1)NCC1CCCO1 (stereo not shown)  5.24%
19. COc1ccc(Cl)cc1N1CC(C(=O)Nc2nccs2)CC1=O (stereo not shown)  5.55%
20. Cc1cccc(C)c1OCc1nnc(SCC(=O)Nc2cccc(C(=O)N3CCOCC3)c2)n1C  7%
21. NC(=O)C1CCCN(CC(=O)N2CCN(c3ccccc3)CC2)C1 (stereo not shown)  7.12%
22. Cc1cc2c(cc1C)-c1nnc(-c3ccc4ccccc4n3)n1C(C)(C)C2  7.42%
23. CCC(C)C(NC(=O)C(N)CC(C)C)C(=O)NC(CCC(=O)OCc1ccccc1)C(N)=O.Cl (stereo not drawn) (H-Leu-Ile-Glu(OBn)-NH2; configuration not given here)  7.77%
24. O=c1[nH]c(=O)n(Cc2ccco2)c(O)c1C=NCc1ccco1  8.27%
25. COc1ccc(F)cc1S(=O)(=O)n1cc(C)nc1-c1ccccc1  8.52%
26. Cc1ccccc1NS(=O)(=O)c1cc(C(N)=O)ccc1C  9.26%
27. COCCNC(=O)c1cc2cc(Cl)cc(Cl)c2oc1=O  9.36%
28. CC1CC(C)(C)NC(=S)N1CC(=O)N1CCN(Cc2ccc3c(c2)OCO3)CC1 (stereo not shown)  10.7%
29. Cn1c(=O)oc2cc(S(=O)(=O)Nc3ccccc3O)ccc21  11.1%
30. Cc1cc(C)cc(N(CC(=O)NC2CCCC2)C(=O)c2csnn2)c1  11.3%
31. COc1cc(NC(=O)c2cc(C)nc3ccccc23)cc(OC)c1  11.6%
32. COc1ccc(C=C2C(=O)c3ccccc3C2=O)cc1O  11.8%
33. CCn1c(=O)c(CCC(=O)NCC2CCCO2)c(C)c2c(C)nn(-c3ccccc3)c21 (stereo not shown)  11.9%
34. O=C(O)CCCn1cc(NC(=O)c2c(F)cccc2F)cn1  11.9%
35. COc1ccc(-c2nsc(SCC(=O)NCc3ccc4c(c3)OCO4)n2)cc1  12.6%
36. O=C(NCCc1ccccc1)c1cccc2c1C(=O)N(C1CCCCC1)C2  12.9%
37. CC(C)(C)NC(=O)CN1CCN(C(=O)CCl)CC1.Cl  13.6%
38. CN(c1ccccc1)S(=O)(=O)c1ccc(C(=O)OCC(=O)NC(N)=O)cc1  14.1%
39. CSc1nnc(-c2cnccn2)n1Cc1ccccc1  14.2%
40. O=C1NC(=O)/C(=C/c2ccccc2OCc2ccccc2)S1  14.8%
41. COC(=O)CSc1nc2cc3c(cc2cc1C)OCCO3  16.6%
42. Cc1nn(Cc2ccccc2)c(Cl)c1C(=O)O  19%
43. COc1ccc(C(CNC(=O)c2ccc(S(=O)(=O)Nc3ccccc3F)cc2)N(C)C)cc1 (stereo not shown)  19.7%
